Read counts are not given, so values of variants with three or more changes are uncertain.
B1: CPEB3 Ribozyme (parent)
chain: UAACAGGGGGCCACAGCAGAAGCGUUCACGUCGCAGCCCCUGUCAGAUUCUGGUGAAUCUGCGAAUUCUGCUGUAUAUCUC

Variants of: B1
Experiment: self-cleavage, relative activity (ratio to wild type); higher = more cleavage; in vitro, sequencing
In short: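 For each CPEB3 ribozyme variant, relative activity is its cleaved/total read fraction divided by the unmutated ribozyme's. Barcoded error-prone PCR libraries were transcribed by T7 RNA polymerase (5 hours, 37°C) and held in DNase I for 15 min before an EDTA stop, with cleavage occurring throughout. Template-switching reverse transcription and Illumina sequencing were used to read the RNAs. A 5-read minimum applied, and results are the mean of three batches.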

Variant	self-cleavage
UAACAGGGGGCCACAGCAGAAGCGUUCGCGUCGCAGCCCCCGUCAGAUUCUGGUGAAUCUGCGAAUUCUGCCGUAUAUCUA [A28G U41C U72C C81A]	0.74
UAACAGGGGGCCACAGCAGAAGCGUUCGCGUCGCAGCCCCCGUCAGAUUCUGGUGAAUCUGCGAAUUCUGCUGUAUACCUC [A28G U41C U78C]	0.24
UAACAGGGGGCCACAGCAGAAGCGUUCGCGUCGCAGCCCCUGACAGGUUCUGGUGAAUCUGCGAAUUCUGCUGUAUAUCUC [A28G U43A A47G]	0.68
UAACAGGGGGCCACAGCAGAAGCGUUCGCGUCGCAGCCCCUGACAGAUUCUGGUGAAUCUGCGAAUUCUGCUGUGUAUCUC [A28G U43A A75G]	0.22
UAACAGGGGGCCACAGCAGAAGCGUUCGCGUCGCAGCCCCUGACAGAUUCUGGUGAAUCUGCUAAUUCUGCUGUAGUUCUC [A28G U43A G63U U76G A77U]	0.97
UAACAGGGGGCCACAGCAGAAGCGUUCGCGUCGCAGCCCCUGCCAGGUUCUGGUGAAUCCGCGAAUUCUGCUGUAUAUCUC [A28G U43C A47G U60C]	0.24
UAACAGGGGGCCACAGCAGAAGCGUUCGCGUCGCAGCCCCUGCCAGAUUCUGGUGGAUCUGCGAAUUCUGCUGUAUAUCUC [A28G U43C A56G]	0.27
UAACAGGGGGCCACAGCAGAAGCGUUCGCGUCGCAGCCCCUGCCAGAAUCUGGUGAAUCUGCGAAUUCUGCUGUACUUCUC [A28G U43C U48A U76C A77U]	0.21
UAACAGGGGGCCACAGCAGAAGCGUUCGCGUCGCAGCCCCUGCCAGAUUCUGGUGAAUCAGCGAAUUCUGCUGUAUAUCUC [A28G U43C U60A]	0.18
UAACAGGGGGCCACAGCAGAAGCGUUCGCGUCGCAGCCCCUGCCAGAUUCUGGUGAAUCAGCGAACUCUGCAGUAUAUCUC [A28G U43C U60A U66C U72A]	0.11
UAACAGGGGGCCACAGCAGAAGCGUUCGCGUCGCAGCCCCUGCCAGAUUCUGGUGAAUCUGCGAAUUCAGCUGUAUAUCUC [A28G U43C U69A]	0.07
UAACAGGGGGCCACAGCAGAAGCGUUCGCGUCGCAGCCCCUGGCAGAUCCUGGUGAAUCUGCGAAUUCUGCUAUACAUCUC [A28G U43G U49C G73A U76C]	0.09
UAACAGGGGGCCACAGCAGAAGCGUUCGCGUCGCAGCCCCUGUCAGAAUCUGGUGAAUCUGCGAAUCCUGCUGUAUAUCUC [A28G U48A U67C]	0.12
UAACAGGGGGCCACAGCAGAAGCGUUCGCGUCGCAGCCCCUGUCAGACUCUGGUGGAUCCGCGUAUUCUGCUGUAUAUCCC [A28G U48C A56G U60C A64U U80C]	0.19
UAACAGGGGGCCACAGCAGAAGCGUUCGCGUCGCAGCCCCUGUCAGACUCUGGUGAAUCUGCGGAUUCCGCUGUAUAUCUC [A28G U48C A64G U69C]	0.17
UAACAGGGGGCCACAGCAGAAGCGUUCGCGUCGCAGCCCCUGUCAGACUCUGGUGAAUCUGCGGAUUCUGCUGUAUAUCCC [A28G U48C A64G U80C]	0.23
UAACAGGGGGCCACAGCAGAAGCGUUCGCGUCGCAGCCCCUGUCAGACUCUGGUGAAUCUGCGAAUUCUGCUGUAUUUCUU [A28G U48C A77U C81U]	0.56

Variant	self-cleavage
UAACAGGGGGCCACAGCAGAAGCGUUCGCGUCGCAGCCCCUGUCAGACUCUGGUGAAUCUGAGAAUUCUGCUAUAUAUCUC [A28G U48C C62A G73A]	0.65
UAACAGGGGGCCACAGCAGAAGCGUUCGCGUCGCAGCCCCUGUCAGACUCUGGUGAAUCUGUGAAUUCUGCUGUAAAUCUC [A28G U48C C62U U76A]	0.31
UAACAGGGGGCCACAGCAGAAGCGUUCGCGUCGCAGCCCCUGUCAGACUCUGGUGAAUCUGCUAAUUCUGCUGUAUAUCUC [A28G U48C G63U]	0.39
UAACAGGGGGCCACAGCAGAAGCGUUCGCGUCGCAGCCCCUGUCAGACUCAGGUGAAUCUGCGAAUUCUGCGGUAUAUCUC [A28G U48C U51A U72G]	0.17
UAACAGGGGGCCACAGCAGAAGCGUUCGCGUCGCAGCCCCUGUCAGACUCUGGUGAAUCUGCGAACUCUGCUGUAUAUCUC [A28G U48C U66C]	0.06
UAACAGGGGGCCACAGCAGAAGCGUUCGCGUCGCAGCCCCUGUCAGACUCUGGUGAAUCUGCGAACUCUGCAGUGUAUCUC [A28G U48C U66C U72A A75G]	0.07
UAACAGGGGGCCACAGCAGAAGCGUUCGCGUCGCAGCCCCUGUCAGACUCUGGUGAAUCUGCGAAUUCGGCUGUAUACCUU [A28G U48C U69G U78C C81U]	0.07
UAACAGGGGGCCACAGCAGAAGCGUUCGCGUCGCAGCCCCUGUCAGACUCUGGUGAAUCUGCGAAUUCUGCUGCAUAUCUC [A28G U48C U74C]	0.52
UAACAGGGGGCCACAGCAGAAGCGUUCGCGUCGCAGCCCCUGUCAGACUCUGGUGAAUCUGCGAAUUCUGCUGUAUACCCC [A28G U48C U78C U80C]	0.21
UAACAGGGGGCCACAGCAGAAGCGUUCGCGUCGCAGCCCCUGUCAGACUCUGGUGAAUCUGCGAAUUCUGCUGUAUAUCCC [A28G U48C U80C]	0.33
UAACAGGGGGCCACAGCAGAAGCGUUCGCGUCGCAGCCCCUGUCAGAUACUGGUGAAUCUGCGAACUCUGCUGUAUAUCUC [A28G U49A U66C]	0.16
UAACAGGGGGCCACAGCAGAAGCGUUCGCGUCGCAGCCCCUGUCAGAUACUGGUGAAUCUGCGAAUUCUGCUGUAUACCUC [A28G U49A U78C]	0.19
UAACAGGGGGCCACAGCAGAAGCGUUCGCGUCGCAGCCCCUGUCAGAUCCUGGUGGGUCUGCGAAUUCUGCAGUAUAUCUC [A28G U49C A56G A57G U72A]	0.18
UAACAGGGGGCCACAGCAGAAGCGUUCGCGUCGCAGCCCCUGUCAGAUCCUGGUGGAUCUGCGAAUUCUGCCGUAUAUCUC [A28G U49C A56G U72C]	0.69
UAACAGGGGGCCACAGCAGAAGCGUUCGCGUCGCAGCCCCUGUCAGAUCCUGGUGAAUCUGCGGAUUCUGCUGUAUGUCCC [A28G U49C A64G A77G U80C]	0.35
UAACAGGGGGCCACAGCAGAAGCGUUCGCGUCGCAGCCCCUGUCAGAUCCUGGUGAAUCUGCGUAUUCUGCUGUAUAUCUC [A28G U49C A64U]	0.3
UAACAGGGGGCCACAGCAGAAGCGUUCGCGUCGCAGCCCCUGUCAGAUCCUGGUGAAUGUGCGAAUUCUGCUGUAUAUCUC [A28G U49C C59G]	0.11

Reference: the RNAGym collection of RNA variant scans (doi:10.1093/nar/gkz1192)
